PMC12136788
The other results are listed elsewhere or left out.

T1: UNK ZnF1-3 (human, UniProt Q9C0B0 31-174)
T1 sequence: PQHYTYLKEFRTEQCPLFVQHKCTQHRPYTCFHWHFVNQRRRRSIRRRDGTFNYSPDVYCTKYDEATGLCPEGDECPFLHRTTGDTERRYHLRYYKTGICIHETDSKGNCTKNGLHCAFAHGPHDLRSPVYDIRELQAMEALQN

B1: chr2:198267414:198267415:-_ENSG00000115524_ENST00000335508|hu_mus|FALSE|FALSE (ssRNA)
RNA: GGGAGUUCUACAGUCCGACGAUCCUUAAUACCAGUGUGCCUCGCUUGCCAAGACUUCUUGCUUUUGCACACAGCUUUUAAGAAAGGCAAUAAAGAAGGGAUGCCCAGGGCAGAGGCUACGACAGCAAAAGCUCUAGCUGUUGUCAACAGAGGAUUGAGCAUCA
B2: chr4:76721835:76721836:+_ENSG00000138768_ENST00000264904|hu_mus|hu_hu_hu_mus_True|38_108 (ssRNA)
RNA: GGGAGUUCUACAGUCCGACGAUCGUUGGCUGGGGUUUUCUGAGACGCUCUGGAAUAUAACUCAUGUUUGCUAAUAAAUCCUAGUUUCUCUAUGAAAUCUCUUUGCCCAAUCCUCUUCUCUAUUAGUUGCUUUAGUUUCUCUUUCAACAGAGGAUUGAGCAUCA
B3: 42876404_42876524_3757_CDS_ENSG00000023516_ENST00000025301|human|control|control (ssRNA)
RNA: GGGAGUUCUACAGUCCGACGAUCUGCCAUUUCAGUUGCAAGAGAAAGGAUGUGUGUAGCUAAUGCUUCUGCAAACUGAACCUUCUUCCCUGAGUGCUCCGACUUCACAUCCACUUCUGGGAGCUCUCCACUUUCACUACUCUCCAACAGAGGAUUGAGCAUCA
B4: chr7:44244176:44244177:+_ENSG00000106636_ENST00000223369|hu_mus|hu_hu_hu_mus_False|38_88 (ssRNA)
RNA: GGGAGUUCUACAGUCCGACGAUCACUGUCGCUCCGGACGUAGACAUGGCACAGAUACUCUUGUUCUUUGACAGAAGCUCUGCUGCCUUUCCCCGAGCGCUCCACAAUCAGUUGACUUGUAAAGGUCAUGAAUUCCUGCACACUCAACAGAGGAUUGAGCAUCA
B5: chr19:32867047:32867048:+_ENSMUSG00000013663_ENSMUST00000013807|mus_mus|FALSE|FALSE (ssRNA)
RNA: GGGAGUUCUACAGUCCGACGAUCAGCACAUAGAUUGUAUAUCUUGUAAUGGUUUUUAUGCUUUGAAUCCAAAAACCUUACUACAUCAUCAAUAUUGUUCCUGUAUACACCUUCAAGUCUUUCUGCAGGAAAUCCCAUAGCAAUCAACAGAGGAUUGAGCAUCA
B6: 48807359_48807479_126_5pUTR_ENSG00000136156_ENST00000378565|human|control|control (ssRNA)
RNA: GGGAGUUCUACAGUCCGACGAUCCCUCGAAGGGCGGCGGCGGGCUCGGGGCGCGGGCUGCGGGCUCCCGGCUGCGAUUGCAGCCUCUACGGCCGGGCUCCGGGAGCGGCUCCGGGCGGCUGAAGAGGUUCGGGAAGCUCCGCGCAACAGAGGAUUGAGCAUCA
B7: chr17:37088456:37088457:-_ENSMUSG00000036398_ENSMUST00000040402|mus_hu|FALSE|FALSE (ssRNA)
RNA: GGGAGUUCUACAGUCCGACGAUCGUAACCGUUGUCUCAGUGACGGUCUCGCUCAGCCCAGCCCCUGCCUCGGCCAUGGCUAAGGCUCAGGACAGGGAGGAGAGGAGGAAGGGGGAUGAGACACCCUUCCCUUUUUCUGUCGCUCAACAGAGGAUUGAGCAUCA
B8: 17153793_17153913_863_3pUTR_ENSMUSG00000038965_ENSMUST00000090192|mouse|control|control (ssRNA)
RNA: GGGAGUUCUACAGUCCGACGAUCAAACGUUGUCAGUGCUGCGGCCACCUCUGUGGGGAGCUGGGGCCUUGGUCUGUGGAAGUGGGAAUCGAAAAGUGGGGAGAGGGGAAGGGGGAAGAAACCACAACAACCUUUUUCUUUAAACAACAGAGGAUUGAGCAUCA
B9: chrX:16870723:16870724:-_ENSG00000102054_ENST00000404022|hu_hu|FALSE|FALSE (ssRNA)
RNA: GGGAGUUCUACAGUCCGACGAUCUUUAUGAGAUUCGAAGGUAUGGAGUUUUAAUUUUAAGUUACGCAGAUCCCAUAAAGCUACGGUCUUAUCCGCAGAGCCGGUGGCUAGAAUAAAUUCGCUGUAGGGAUUGAAUGAGAGGCACAACAGAGGAUUGAGCAUCA
B10: chr3:159597999:159598000:+_ENSMUSG00000028173_ENSMUST00000068952|mus_mus|FALSE|FALSE (ssRNA)
RNA: GGGAGUUCUACAGUCCGACGAUCAGCAAGAAGUUAAAAAAAGCUUUUAGGACCCAAAGGCCAUUUAAUACCAGAAAUCCUAUUUGGGUAGUUAAGCAAAUAUUUCUCAAAAUCCACAAACAAACAGACAGAUUAGUAUCAAAUCAACAGAGGAUUGAGCAUCA
B11: chr11:77336104:77336105:-_ENSG00000074201_ENST00000525064|hu_mus|hu_hu_hu_mus_False|48_88 (ssRNA)
RNA: GGGAGUUCUACAGUCCGACGAUCCUCACACAUUGCUGUGAACAUCGCCUCCAACGCUGACUUAUCACUGGGCACAAAUCGAAAUUCAGUAAUAGGUUCAACAUCAUCAUUGUCUUCCUCAUCUUCAUCAGAGAGAGGUUCUUUCAACAGAGGAUUGAGCAUCA
B12: chr11:29608638:29608639:+_ENSMUSG00000020458_ENSMUST00000102843|mus_mus|FALSE|FALSE (ssRNA)
RNA: GGGAGUUCUACAGUCCGACGAUCAAGUUUUUCCUCUGCUUCUUUCGUAAGUACUUUGGGUUUAACUAUGUUGCCCAUUUCUAUUUGAGAUUCCAAAGCAGAAACAUUUGGAAGCAAUAAGGGCACCUUAGAUACACUGGACCUCAACAGAGGAUUGAGCAUCA
B13: chr12:48362563:48362564:+_ENSG00000134291_ENST00000256686|hu_hu|hu_hu_hu_mus_False|18_38 (ssRNA)
RNA: GGGAGUUCUACAGUCCGACGAUCUCCGUCAAGCCCUUCGAUAGACCCUUGCGGGGGAAACUGUAAUCACUUUGUAUGGGGAAGGAAAAGAAACGCCAACACACUUUCAAAAAGCGGUUCAAAAAGCAGGCGGGAGGGGGAGGUCAACAGAGGAUUGAGCAUCA
B14: chr7:148047826:148047827:+_ENSMUSG00000025485_ENSMUST00000026558|mus_hu|FALSE|FALSE (ssRNA)
RNA: GGGAGUUCUACAGUCCGACGAUCCCCCAUUGGCUGGAUGACUCUGUUCCUGGAGAGCUUGUCAAACAUGGUCACCAGCUUCAUGGCCUCGUGCUCCUUCUGCUCCUCUGUCAUGCCCUCCAUAGGGUUAGGCGGCUUCUCCUCCAACAGAGGAUUGAGCAUCA

Target: T1, UNK ZnF1-3
Experiment: nsRBNS (natural sequence RNA bind-n-seq); RBNS binding buffer (assumed for nsRBNS): 25 mM Tris pH 7.5, 150 mM KCl, 3 mM MgCl2, 0.01% Triton X-100, 500 ug/ml BSA, 20 U/ml SUPERase-In, 4 C; UNK is unkempt and MSI1 is Musashi-1; names of the RNAs are library labels; protein concentration not given here; high values mean tight binding

Binder	binding signal [enrichment R]
B1	1.12
B2	0.414
B3	0.809
B4	0.564
B5	0.876
B6	0.748
B7	0.412
B8	1.6
B9	1.36
B10	1.87
B11	1.07
B12	0.769
B13	2.1
B14	0.564
